In the supplement of paper PMC10126150:
Sequences with one replicate were seen in a single cluster, so their values are uncertain.

These sequences were tested on ATP (assay: switch fluorescence ratio, 500 uM ATP over buffer (Cy3 cluster intensity, sum of 5 cycles each) (fold (ratio)); higher = stronger signal-on switching upon ATP binding; sequences stand for … in TCGTCGGCAGCGTCAGATGTGTATAAGAGACAGTTTTTTTTTTTTTTTTTTTTTTTTT…TC). Details: aptamer strand: ATP DNA aptamer (quencher-CACCTGGGGGAGTATTGCGGAGGAAGG + anchor), 100 nM annealed; ATP concentration: 500 uM; one replicate.
Procedure, shortened: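 Clusters with intensities outside 100-1000 RFU were excluded. The remaining Cy3-labelled switching-strand clusters on a modified Illumina MiSeq flow-cell had been annealed to 100 nM quencher-labelled ATP aptamer and imaged in selection buffer, then after 15 min with 500 uM ATP at 22 °C, for five cycles separated by NaOH stripping and re-annealing. The fluorescence ratio, averaged per switch-domain sequence, is each cluster's summed target-cycle Cy3 intensity over its summed buffer-cycle Cy3 intensity.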
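Note: ATP exposure 15 min at 22 °C before imaging.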

Row | Sequence | switch fluorescence ratio
1 | TCAACGTTCG | 0.996
2 | TCAACTGAGG | 1.02
3 | TCAACTTGTG | 1.02
4 | TCAAGAAAGG | 1.05
5 | TCAAGATAGT | 1.01
6 | TCAAGCAAAG | 1.12
7 | TCAAGCAACT | 1.16
8 | TCAAGCGCCG | 1.01
9 | TCAAGGGGCG | 1.03
10 | TCAAGTACTG | 1.28
11 | TCAAGTAGCT | 1.02
12 | TCAAGTCAT | 1.06
13 | TCAAGTTAGA | 0.985
14 | TCAATAATCT | 1.02
15 | TCAATACGCT | 1.19
16 | TCAATACTCA | 3.14
17 | TCAATAGATT | 1.02
18 | TCAATCGACG | 1
19 | TCAATCGGGA | 1
20 | TCAATGCGCA | 0.947
21 | TCAATTAACG | 1.11
22 | TCAATTGATC | 1.01
23 | TCACAAGCTA | 1.11
24 | TCACAAGTGC | 1.04
25 | TCACAGACTC | 1.23
26 | TCACAGGGTC | 1.03

Row | Sequence | switch fluorescence ratio
27 | TCACATTAGG | 1.05
28 | TCACCATAAA | 1.02
29 | TCACGAATAA | 1.06
30 | TCACGACAGA | 1.13
31 | TCACGAGATC | 0.995
32 | TCACGCCATT | 1.17
33 | TCACGGATCT | 0.993
34 | TCACGGCGGA | 0.984
35 | TCACGTATG | 1.06
36 | TCACGTGAGA | 1.04
37 | TCACGTTACC | 1.67
38 | TCACTAATTT | 1.01
39 | TCACTACCCC | 1.07
40 | TCACTATTGG | 1.03
41 | TCACTGACTA | 1.2
42 | TCACTGCACT | 1.58
43 | TCACTGCCTA | 1.05
44 | TCACTGGAGG | 0.977
45 | TCAGAAAAGA | 1.07
46 | TCAGAAAATG | 1.18
47 | TCAGAAATCG | 1.02
48 | TCAGAACAGA | 1.02
49 | TCAGAACCGT | 0.974
50 | TCAGAACTTT | 0.971
51 | TCAGACCCCT | 1.03
52 | TCAGAGCGG | 1.04

Row | Sequence | switch fluorescence ratio
53 | TCAGATAGTG | 0.984
54 | TCAGATCGTG | 0.972
55 | TCAGATTTG | 0.996
56 | TCAGCACATT | 1.04
57 | TCAGCCTTGA | 0.964
58 | TCAGCTACAT | 1.04
59 | TCAGCTTACC | 1.12
60 | TCAGGACTGC | 0.987
61 | TCAGGATGTC | 1.11
62 | TCAGGATTTA | 1.07
63 | TCAGGCGCTT | 1.02
64 | TCAGGGCC | 1.02
65 | TCAGGGTGCA | 0.987
66 | TCAGGTAGTA | 1.06
67 | TCAGGTCAGT | 0.993
68 | TCAGGTCGGA | 0.988
69 | TCAGGTCGGG | 0.983
70 | TCAGGTTATT | 0.995
71 | TCAGTAGGGT | 0.987
72 | TCAGTAGTGT | 1.07
73 | TCAGTATTAT | 1
74 | TCAGTCAAAG | 0.989
75 | TCAGTGGAGT | 0.979
76 | TCAGTGTATC | 0.985
77 | TCAGTTTCTC | 1.06
78 | TCATAATGAC | 1.04

Row | Sequence | switch fluorescence ratio
79 | TCATACAGGC | 0.986
80 | TCATACCTGA | 1.01
81 | TCATAGACCG | 1.06
82 | TCATAGTGCT | 0.979
83 | TCATATAGTA | 1.03
84 | TCATATCAGA | 1.01
85 | TCATATCTAT | 1
86 | TCATATCTGT | 0.969
87 | TCATATGGAC | 1.06
88 | TCATATTGAG | 0.992
89 | TCATCAGCTT | 1.33
90 | TCATCGAAAT | 1.01
91 | TCATCGACGT | 0.974
92 | TCATCGACTG | 1.02
93 | TCATCGAGGG | 0.952
94 | TCATCGGTAA | 1.55
95 | TCATCTATGC | 1.01
96 | TCATGATTA | 1.01
97 | TCATGGGTGT | 1.03
98 | TCATGGTTAT | 1.05
99 | TCATGTTTGT | 1.01
100 | TCATTCAGCT | 1
101 | TCATTGCTAG | 0.982
102 | TCATTGGGCC | 0.978
103 | TCATTTAA | 0.954
104 | TCATTTCGCA | 1.33

Row | Sequence | switch fluorescence ratio
105 | TCATTTGAAC | 0.995
106 | TCATTTGGA | 1
107 | TCATTTGGCC | 0.946
108 | TCCAAAAACC | 1.09
109 | TCCAAGCGAG | 1.25
110 | TCCAATAGAC | 2.27
111 | TCCAATGGGG | 0.996
112 | TCCACACAGT | 0.989
113 | TCCACCCTTT | 1.02
114 | TCCACGTCAA | 3.5
115 | TCCACTTTCT | 1.02
116 | TCCAGAGGTC | 1.02
117 | TCCAGATATC | 0.984
118 | TCCAGATTT | 0.953
119 | TCCAGCGTAG | 1.04
120 | TCCAGCTCAG | 0.984
121 | TCCAGGTTGA | 1.26
122 | TCCAGGTTGT | 1.49
123 | TCCAGTCAGC | 1.03
124 | TCCAGTCATA | 0.999
125 | TCCAGTGATA | 1.08
126 | TCCAGTGGTT | 1.03
127 | TCCAGTTTC | 1.02
128 | TCCATAGTTC | 1.05
129 | TCCATCGAGG | 1
130 | TCCATGCGGA | 0.996

Row | Sequence | switch fluorescence ratio
131 | TCCATGCTGC | 1.21
132 | TCCATGGGCG | 0.996
133 | TCCATTATTG | 1.02
134 | TCCATTTTCT | 0.968
135 | TCCCACGATC | 1.18
136 | TCCCACTCGG | 1.05
137 | TCCCATATGC | 2.09
138 | TCCCCATCGT | 1.04
139 | TCCCCCTTGT | 1.03
140 | TCCCCGGCCC | 1.44
141 | TCCCCGTGTC | 1.85
142 | TCCCGCTAGG | 1.01
143 | TCCCGGGGTT | 1.05
144 | TCCCGTAAAA | 1.29
145 | TCCCTTCTTG | 1
146 | TCCGAAATTG | 1.41
147 | TCCGAATGGA | 1.03
148 | TCCGAGAGCG | 2.89
149 | TCCGCAATTT | 1.04
150 | TCCGCCAATT | 5.98
151 | TCCGCCTGCA | 4.37
152 | TCCGCCTTTA | 1.16
153 | TCCGCGGGCT | 1.33
